Measured values reported in article PMC10048706.
These are yes or no findings as the source states them, for the method shown. Binding seen in cells or lysates may run through a third protein. Some binding calls cover weakened binding; strength is not graded here. For some of these results: Sequences can lack the tags named with a protein.

By UniProt entry, the sequences of proteins in these tests, tags left out. Where a name states a change or a piece, a line headed by the entry shows the natural chain unless it says otherwise.
UniProt Q13435: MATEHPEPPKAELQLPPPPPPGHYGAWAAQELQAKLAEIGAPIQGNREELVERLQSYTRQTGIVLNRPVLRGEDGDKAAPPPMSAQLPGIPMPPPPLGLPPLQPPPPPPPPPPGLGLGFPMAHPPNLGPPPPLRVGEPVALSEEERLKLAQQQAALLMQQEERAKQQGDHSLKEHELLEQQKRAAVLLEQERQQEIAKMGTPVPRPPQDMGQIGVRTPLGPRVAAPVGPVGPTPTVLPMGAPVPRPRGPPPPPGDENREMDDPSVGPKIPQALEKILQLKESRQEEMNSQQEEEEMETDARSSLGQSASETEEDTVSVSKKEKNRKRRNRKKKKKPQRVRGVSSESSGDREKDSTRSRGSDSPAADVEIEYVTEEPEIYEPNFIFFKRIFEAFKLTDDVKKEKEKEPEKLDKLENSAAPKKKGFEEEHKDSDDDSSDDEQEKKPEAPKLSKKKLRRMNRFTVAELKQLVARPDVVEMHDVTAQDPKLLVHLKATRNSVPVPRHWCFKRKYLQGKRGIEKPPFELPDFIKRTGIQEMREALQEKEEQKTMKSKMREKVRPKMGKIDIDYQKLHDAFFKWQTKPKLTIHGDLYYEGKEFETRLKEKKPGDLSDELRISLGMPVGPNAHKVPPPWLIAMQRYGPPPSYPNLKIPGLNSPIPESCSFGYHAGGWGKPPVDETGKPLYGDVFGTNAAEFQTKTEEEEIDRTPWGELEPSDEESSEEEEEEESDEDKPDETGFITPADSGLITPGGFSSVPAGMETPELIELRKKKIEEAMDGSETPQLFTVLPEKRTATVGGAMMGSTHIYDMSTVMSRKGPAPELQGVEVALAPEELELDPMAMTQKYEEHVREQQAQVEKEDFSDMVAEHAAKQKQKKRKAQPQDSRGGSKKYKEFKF

T1: full-length glutathione S-transferase (GST)-FRA10AC1 chimeric protein (human) (UniProt Q70Z53)
T1 sequence: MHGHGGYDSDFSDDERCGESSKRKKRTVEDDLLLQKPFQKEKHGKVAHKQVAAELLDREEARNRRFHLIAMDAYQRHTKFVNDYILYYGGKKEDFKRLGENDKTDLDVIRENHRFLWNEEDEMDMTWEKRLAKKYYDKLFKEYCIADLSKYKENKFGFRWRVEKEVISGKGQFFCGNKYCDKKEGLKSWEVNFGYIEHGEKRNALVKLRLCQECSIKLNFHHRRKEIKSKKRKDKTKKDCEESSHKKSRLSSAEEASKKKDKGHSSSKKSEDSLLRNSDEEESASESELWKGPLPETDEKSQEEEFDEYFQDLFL

T2: endogenous FRA10AC1 protein of HeLa cells (human (endogenous in HeLa)) (UniProt Q70Z53)
T2 sequence: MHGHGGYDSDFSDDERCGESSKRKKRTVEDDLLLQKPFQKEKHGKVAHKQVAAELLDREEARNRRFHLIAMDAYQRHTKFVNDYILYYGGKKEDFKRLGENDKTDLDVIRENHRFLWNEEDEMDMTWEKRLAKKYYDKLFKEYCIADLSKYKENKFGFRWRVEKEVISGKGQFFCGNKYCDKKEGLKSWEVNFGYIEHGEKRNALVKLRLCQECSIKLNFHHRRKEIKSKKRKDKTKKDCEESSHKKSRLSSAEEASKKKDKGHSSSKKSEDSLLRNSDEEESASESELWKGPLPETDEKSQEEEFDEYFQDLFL

T3: GST-ESS2 (aa: 25-472) (human) (UniProt Q96DF8)
T3 sequence: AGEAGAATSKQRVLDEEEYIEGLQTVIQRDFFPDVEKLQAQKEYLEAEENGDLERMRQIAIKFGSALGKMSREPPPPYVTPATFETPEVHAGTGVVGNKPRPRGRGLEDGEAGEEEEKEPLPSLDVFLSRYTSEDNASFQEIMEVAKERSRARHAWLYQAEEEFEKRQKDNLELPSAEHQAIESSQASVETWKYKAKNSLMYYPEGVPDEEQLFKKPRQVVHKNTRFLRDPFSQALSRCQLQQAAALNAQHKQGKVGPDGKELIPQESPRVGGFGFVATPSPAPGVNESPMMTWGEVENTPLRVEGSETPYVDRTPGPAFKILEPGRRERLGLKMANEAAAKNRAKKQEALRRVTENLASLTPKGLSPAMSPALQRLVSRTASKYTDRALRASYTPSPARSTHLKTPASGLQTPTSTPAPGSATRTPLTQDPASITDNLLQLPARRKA

T4: GST-ESS2 (aa 294-472) (human) (UniProt Q96DF8)
T4 sequence: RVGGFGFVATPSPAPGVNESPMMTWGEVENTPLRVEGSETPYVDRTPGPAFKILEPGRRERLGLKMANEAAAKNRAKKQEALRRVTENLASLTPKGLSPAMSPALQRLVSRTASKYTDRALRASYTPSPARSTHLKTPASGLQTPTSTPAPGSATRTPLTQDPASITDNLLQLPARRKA

T5: endogenous ESS2 protein of HeLa cells (human (endogenous in HeLa)) (UniProt Q96DF8)
T5 sequence: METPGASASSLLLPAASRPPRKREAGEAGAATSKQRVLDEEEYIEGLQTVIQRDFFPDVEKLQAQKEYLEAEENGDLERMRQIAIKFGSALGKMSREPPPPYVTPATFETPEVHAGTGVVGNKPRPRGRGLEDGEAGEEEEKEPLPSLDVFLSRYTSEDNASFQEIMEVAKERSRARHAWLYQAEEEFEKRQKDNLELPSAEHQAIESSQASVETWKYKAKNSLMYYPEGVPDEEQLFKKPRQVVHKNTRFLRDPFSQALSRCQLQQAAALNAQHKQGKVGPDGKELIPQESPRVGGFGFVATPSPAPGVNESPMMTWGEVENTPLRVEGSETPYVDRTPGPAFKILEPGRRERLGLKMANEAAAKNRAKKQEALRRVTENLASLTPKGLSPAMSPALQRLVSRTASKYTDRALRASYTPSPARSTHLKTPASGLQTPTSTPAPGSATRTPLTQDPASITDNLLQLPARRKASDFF


Experiments:
[1] = target: T1, full-length glutathione S-transferase (GST)-FRA10AC1 chimeric protein (human); assay: pull-down; GST-FRA10AC1 on glutathione-Sepharose beads incubated with in vitro translated [35S]-methionine-labelled protein; 50 mM Tris-HCl pH 8.0, 100 mM NaCl, 1 mM EDTA, 0.1% Nonidet P-40, overnight at 4 °C; autoradiography; only the target purified
[2] = target: T2, endogenous FRA10AC1 protein of HeLa cells (human (endogenous in HeLa)); assay: co-IP; endogenous proteins of HeLa cell extract; IP with 1 ug affinity-purified home-made anti-FRA10AC1 or anti-ESS2, or with anti-SF3B2; Western blot
[3] = target: T3, GST-ESS2 (aa: 25-472) (human); assay: pull-down; ~2 ug GST-ESS2 fragment on glutathione-Sepharose beads in RIPA buffer with protein extracts of transiently transfected HeLa cells expressing FRA10AC1-EGFP fragments, overnight at 4 °C; Western blot with anti-GFP; only the target purified
[4] = target: T4, GST-ESS2 (aa 294-472) (human); assay: pull-down; ~2 ug GST-ESS2 fragment on glutathione-Sepharose beads in RIPA buffer (50 mM Tris-HCl pH 8.0, 50 mM NaCl, 0.5% Nonidet P-40, 0.1% SDS) with ~1.5 mg total HeLa lysate, overnight at 4 °C; Western blot with anti-FRA10AC1; only the target purified
[5] = target: T5, endogenous ESS2 protein of HeLa cells (human (endogenous in HeLa)); assay: co-IP; endogenous proteins of HeLa cell extract; IP with 1 ug affinity-purified home-made anti-FRA10AC1 or anti-ESS2, or with anti-SF3B2; Western blot

binding [1]	binding [2]	Molecule	also measured
binds	–	in vitro translated [35S]-methionine-labelled SF3B2 (amino acids 154-813) (from UniProt Q13435 154-813) (domain or fragment)	–
–	no binding	endogenous SF3B2 protein of HeLa cells (from UniProt Q13435 1-895)	–
–	–	FRA10AC1-EGFP fragment, amino acids 96-253 (domain or fragment, UniProt Q70Z53 96-253) KRLGENDKTDLDVIRENHRFLWNEEDEMDMTWEKRLAKKYYDKLFKEYCIADLSKYKENKFGFRWRVEKEVISGKGQFFCGNKYCDKKEGLKSWEVNFGYIEHGEKRNALVKLRLCQECSIKLNFHHRRKEIKSKKRKDKTKKDCEESSHKKSRLSSA	binding [3]: binds
–	–	endogenous FRA10AC1 protein of HeLa cells (protein, UniProt Q70Z53 1-315) MHGHGGYDSDFSDDERCGESSKRKKRTVEDDLLLQKPFQKEKHGKVAHKQVAAELLDREEARNRRFHLIAMDAYQRHTKFVNDYILYYGGKKEDFKRLGENDKTDLDVIRENHRFLWNEEDEMDMTWEKRLAKKYYDKLFKEYCIADLSKYKENKFGFRWRVEKEVISGKGQFFCGNKYCDKKEGLKSWEVNFGYIEHGEKRNALVKLRLCQECSIKLNFHHRRKEIKSKKRKDKTKKDCEESSHKKSRLSSAEEASKKKDKGHSSSKKSEDSLLRNSDEEESASESELWKGPLPETDEKSQEEEFDEYFQDLFL	binding [4]: binds; binding [5]: binds
–	binds	endogenous ESS2 protein of HeLa cells (protein, UniProt Q96DF8 1-476) METPGASASSLLLPAASRPPRKREAGEAGAATSKQRVLDEEEYIEGLQTVIQRDFFPDVEKLQAQKEYLEAEENGDLERMRQIAIKFGSALGKMSREPPPPYVTPATFETPEVHAGTGVVGNKPRPRGRGLEDGEAGEEEEKEPLPSLDVFLSRYTSEDNASFQEIMEVAKERSRARHAWLYQAEEEFEKRQKDNLELPSAEHQAIESSQASVETWKYKAKNSLMYYPEGVPDEEQLFKKPRQVVHKNTRFLRDPFSQALSRCQLQQAAALNAQHKQGKVGPDGKELIPQESPRVGGFGFVATPSPAPGVNESPMMTWGEVENTPLRVEGSETPYVDRTPGPAFKILEPGRRERLGLKMANEAAAKNRAKKQEALRRVTENLASLTPKGLSPAMSPALQRLVSRTASKYTDRALRASYTPSPARSTHLKTPASGLQTPTSTPAPGSATRTPLTQDPASITDNLLQLPARRKASDFF	–
binds	–	in vitro translated [35S]-methionine-labelled ESS2 (amino acids 25-472) (domain or fragment, UniProt Q96DF8 25-472, [35S] methionine label) AGEAGAATSKQRVLDEEEYIEGLQTVIQRDFFPDVEKLQAQKEYLEAEENGDLERMRQIAIKFGSALGKMSREPPPPYVTPATFETPEVHAGTGVVGNKPRPRGRGLEDGEAGEEEEKEPLPSLDVFLSRYTSEDNASFQEIMEVAKERSRARHAWLYQAEEEFEKRQKDNLELPSAEHQAIESSQASVETWKYKAKNSLMYYPEGVPDEEQLFKKPRQVVHKNTRFLRDPFSQALSRCQLQQAAALNAQHKQGKVGPDGKELIPQESPRVGGFGFVATPSPAPGVNESPMMTWGEVENTPLRVEGSETPYVDRTPGPAFKILEPGRRERLGLKMANEAAAKNRAKKQEALRRVTENLASLTPKGLSPAMSPALQRLVSRTASKYTDRALRASYTPSPARSTHLKTPASGLQTPTSTPAPGSATRTPLTQDPASITDNLLQLPARRKA	–
